PubChem BioAssay AID1460 (National Center for Advancing Translational Sciences (NCATS), 2008)
The whole screen tested about 270,000 compounds, of which about 5,800 (2.1%) were called active. Inconclusive means that the source gave no clear call. Such entries were picked first, then a sample of the others. Calls follow the shape of the dose curve; as a rule, active = well fitted inhibition curve with a large enough effect; inconclusive = small, poorly fitted or top-dose-only effect; inactive = flat fitted curve, though single readings scatter. Potencies of inconclusive entries are doubtful fits and often do not repeat.

Each compound was assayed against Microtubule-associated protein tau (Homo sapiens) (UniProt P10636) (assay: qHTS for Inhibitors of Tau Fibril Formation, Thioflavin T Binding). Conditions: recombinant tau K18 P301L (four-repeat tau fragment), heparin-induced fibrillization, ThT fluorescence; series mostly up to 57.4 µM.
UniProt P10636, sequence (P10636 whole entry, looked up, the tested form may be a part): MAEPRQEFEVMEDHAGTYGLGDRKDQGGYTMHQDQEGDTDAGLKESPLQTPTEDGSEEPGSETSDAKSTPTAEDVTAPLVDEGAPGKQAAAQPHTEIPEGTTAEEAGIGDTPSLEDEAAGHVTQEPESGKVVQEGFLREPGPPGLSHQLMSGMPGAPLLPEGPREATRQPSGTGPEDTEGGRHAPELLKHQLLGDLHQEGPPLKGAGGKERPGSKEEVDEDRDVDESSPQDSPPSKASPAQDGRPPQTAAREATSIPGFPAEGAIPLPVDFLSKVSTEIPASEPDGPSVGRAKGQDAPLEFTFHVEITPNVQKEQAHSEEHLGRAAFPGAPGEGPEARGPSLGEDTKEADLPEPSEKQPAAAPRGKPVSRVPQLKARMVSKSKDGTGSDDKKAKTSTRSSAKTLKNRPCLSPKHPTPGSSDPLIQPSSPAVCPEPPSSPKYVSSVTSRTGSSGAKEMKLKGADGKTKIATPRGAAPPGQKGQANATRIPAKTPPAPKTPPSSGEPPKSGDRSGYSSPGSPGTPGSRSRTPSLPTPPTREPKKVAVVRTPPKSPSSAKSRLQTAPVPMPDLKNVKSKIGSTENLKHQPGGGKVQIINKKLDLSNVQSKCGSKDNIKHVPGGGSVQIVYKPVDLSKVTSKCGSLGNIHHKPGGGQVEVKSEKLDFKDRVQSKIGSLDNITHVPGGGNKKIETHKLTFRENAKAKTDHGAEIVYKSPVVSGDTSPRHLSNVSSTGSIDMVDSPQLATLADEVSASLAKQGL
Procedure, shortened: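 Heparin-induced fibrillization of the P301L-mutant K18 repeat-domain fragment of human tau was followed by ThT binding in quantitative high-throughput format.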
Also: nearly all actives have a fitted effect of over 55% in size.
Potency is read from the fitted curve at half-maximal effect; tags tell the direction and shape of the fitted curve.

| SMILES | Potency |
| --- | --- |
| COc1cc(/C=C(\C#N)c2[nH]nc(N)c2C#N)cc(OC)c1O | inconclusive: 2.82 µM [inhibitor, full curve, poor fit] |
| Cc1cc(C)nc(NNC2=CC(=O)CC(C)(C)C2)n1 | inconclusive: 22.4 µM [inhibitor, partial curve] |
| COc1ccc(-c2nc(NC(=O)c3ccc(OCC(=O)N4CCOCC4)c(OC)c3)sc2C)cc1 | inconclusive: 35.5 µM [inhibitor, single point] |
| O=C(CS(=O)c1ccccc1[N+](=O)[O-])Oc1ccc(Br)cc1 (stereo not given) | inconclusive: 15.8 µM [inhibitor, partial curve] |
| Cc1ccc2c(c1)c1c3n2CC(=C2C(=O)OC(C)(C)OC2=O)NC3CCC1 (stereo not given) | inconclusive: 28.2 µM [inhibitor, partial curve] |
| CC(=O)c1ccc(NC(=S)Nc2ccc3[nH]c(=O)[nH]c3c2)cc1 | inactive |
| CC(=O)c1ccc(N2CCN(C(=O)NCc3noc4ccc(C)cc34)CC2)cc1 | inconclusive: 11.2 µM [inhibitor, partial curve] |
| COC(=O)CCc1sc(Nc2ccc(OC)cc2)nc1-c1ccc(OC)cc1 | inconclusive: 14.1 µM [inhibitor, partial curve] |
| C[C@@H](C(=O)NCCc1c[nH]c2ccccc12)[C@@H]1C[C@@]1(C)[C@@H](NC(=O)OCc1ccccc1)c1ccccc1 | inconclusive: 44.7 µM [inhibitor, single point] |
| Cc1ccc(Nc2c([N+](=O)[O-])c(=O)n(C)c3ccccc23)cc1 | inconclusive: 22.4 µM [inhibitor, partial curve] |
| Cc1noc(-c2ccccc2OCC(=O)Nc2cccc([N+](=O)[O-])c2)n1 | inconclusive: 25.1 µM [inhibitor, single point] |
| CCOC(=O)c1c(C2CC2)csc1NC(=O)COC(=O)c1ccc[n+]([O-])c1 | inconclusive: 31.6 µM [inhibitor, single point] |
| Cc1ccc(Oc2cc(NC(=O)CCCn3nc([N+](=O)[O-])cc3C)cc([N+](=O)[O-])c2)cc1 | inactive |
| CCOC(=O)c1cnc2ccc(F)cc2c1Nc1ccc2c(c1)OCCO2 | inconclusive: 2.82 µM [inhibitor, single point] |
| CCCCC(CC)C1OCC(C[N+]2(C)CCOCC2)O1 (stereo not given) | inactive |
| Clc1ccccc1-c1nnc(-c2ccc3c(c2)OCO3)o1 | inconclusive: 2.51 µM [inhibitor, full curve] |
| O=[N+]([O-])c1cccnc1Sc1n[nH]c(-c2ccc(Cl)cc2)n1 | inconclusive: 20 µM [inhibitor, partial curve, poor fit] |
| Cc1ccc(-n2nnnc2Sc2ccc(S(=O)(=O)NCCN(C)C)cc2[N+](=O)[O-])cc1 | inconclusive: 10 µM [inhibitor, partial curve] |
| Cc1ccc(C(=O)C(=O)c2ccc(C)c(N)c2)cc1N | inconclusive: 39.8 µM [inhibitor, single point] |
| CS(=O)(=O)N1CCN(C(=O)NC2CCCCC2)CC1 | inactive |
| CCN(CC)C(=O)C1CCCN(c2ccc([N+](=O)[O-])cc2[N+](=O)[O-])C1 (stereo not given) | inactive |
| CC(Nc1ccccc1N1CCCCC1)C(=O)N1CCc2ccccc21 (stereo not given) | inconclusive: 20 µM [inhibitor, partial curve] |
| CSc1nc(-c2ccccc2)nn1C(=O)c1ccccc1 | inconclusive: 39.8 µM [inhibitor, single point] |
| CC1(C)CC(=O)C2=C(C1)N=C1c3ccccc3C(=O)C1C2c1ccc(Cl)cc1 (stereo not given) | inconclusive: 25.1 µM [inhibitor, partial curve] |

| SMILES | Potency |
| --- | --- |
| CCOc1ccc(CNC(=O)c2ccc3nc(Cc4ccc(OC)cc4)oc3c2)cc1OC | inactive |
| CCCNc1nc2c(c(=O)n(C)c(=O)n2C)n1Cc1cccc(C)c1 | inactive |
| O=C1/C(=C/Nc2cccc([N+](=O)[O-])c2)CCc2ccccc21 | active: 14.1 µM |
| Cc1ccc(N=Nc2ccc(O)c3ncccc23)cc1 | inconclusive: 2.51 µM [inhibitor, full curve] |
| COc1ccc(N2CCN(CC(O)COc3ccc(C(C)(C)C)cc3)CC2)cc1 (stereo not given) | inconclusive: 1.78 µM [inhibitor, full curve] |
| O=C1OC(Nc2ccc3c(c2)OCO3)c2ccccc21 (stereo not given) | active: 12.6 µM |
| CN(C)c1ccc(/C=N/N=C(N)N)cc1[N+](=O)[O-] | inconclusive: 14.1 µM [inhibitor, partial curve] |
| CC(=O)OCCCNc1cc(Sc2ccc(Cl)cc2)c2nonc2c1[N+](=O)[O-] | active: 8.91 µM |
| Cc1ccc2c(CNCCc3ccc(Cl)cc3)c(C(=O)O)n(Cc3ccc(F)cc3)c2c1 | inconclusive: 31.6 µM [inhibitor, single point] |
| Cc1cccn2c(=O)c3cc(C(=O)O)n(C)c3nc12 | inconclusive: 31.6 µM [inhibitor, single point] |
| Cc1ccc(NC(=O)CCC(=O)O)cc1F | inactive |
| O=C(O)/C=C1\NC(=O)c2ccccc21 | inactive |
| Cc1ccc(CN2CCSc3ccc(C(=O)N4CCN(c5cccc(C)c5C)CC4)cc32)cc1 | inconclusive: 8.91 µM [inhibitor, partial curve] |
| CN1/C(=C\C=C2/C(=O)Oc3ccccc3C2=O)C(C)(C)c2ccccc21 | inconclusive: 8.91 µM [inhibitor, partial curve] |
| Clc1ccc2nc(-c3ccccn3)c(Nc3ccc4c(c3)OCO4)n2c1 | inconclusive: 15.8 µM [inhibitor, partial curve] |
| CCOc1cc(/C=N/NC(=O)Nc2ccccc2)ccc1O | inconclusive: 5.01 µM [inhibitor, partial curve] |
| OCC(O)CN1CCCC1 (stereo not given) | inconclusive: 31.6 µM [inhibitor, partial curve, poor fit] |
| Cc1nc(N)sc1-c1csc(Nc2ccc(Cl)cn2)n1 | active: 7.94 µM |
| O=C1/C(=C/c2cccnc2)Sc2ccccc21 | inconclusive: 7.94 µM [inhibitor, partial curve] |
| COc1ccc(-c2csc(NCc3ccco3)n2)cc1C | inconclusive: 14.1 µM [inhibitor, partial curve] |
| CCOC(=O)c1ccc(NC(=O)CCc2c(C)nc3c(c(C)nn3C)c2C)cc1 | inconclusive: 2.82 µM [inhibitor, partial curve, poor fit] |
| O=c1c2c3c(sc2nnn1Cc1ccc(Br)cc1)CCCC3 | inactive |
| O=C(Nc1ccc(N2CCN(C(=O)c3ccco3)CC2)cc1)c1ccco1 | inconclusive: 10 µM [inhibitor, partial curve] |
| Cc1cc(C)c(NC(=O)CS)c(Cl)c1 | inconclusive: 25.1 µM [inhibitor, single point] |

| SMILES | Potency |
| --- | --- |
| Cc1ncc(/C=C2\C(=O)Nc3ccccc32)[nH]1 | active: 15.8 µM |
| COc1ccc(-c2nc3c(C#N)c[nH]n3c2NC2CCCCC2)c(OC)c1 | inactive |
| COc1ccccc1NC(=O)Nc1ccc(N2CCOCC2)cc1 | inconclusive: 14.1 µM [inhibitor, partial curve] |
| CCCn1nc(C(=O)OCC(=O)c2ccc3c(c2)NC(=O)CO3)c2ccccc2c1=O | inconclusive: 28.2 µM [inhibitor, single point] |
| CCOC(=O)CSc1ncc(-c2cccc(Cl)c2)cn1 | inconclusive: 12.6 µM [inhibitor, partial curve, poor fit] |
| Cc1nn(-c2ccccc2)c(Cl)c1C(=O)Nc1nnc(C2CCCCC2)s1 | inconclusive: 22.4 µM [inhibitor, partial curve, poor fit] |
| COCc1cc(C)nc(OCC(=O)N/N=C/c2ccc(-c3cccc([N+](=O)[O-])c3)o2)c1C#N | inconclusive: 22.4 µM [inhibitor, partial curve] |
| CC(=Nc1cccc(O)c1)c1sc2ccccc2c1O | inconclusive: 8.91 µM [inhibitor, partial curve] |
| COn1c(SC2CCCCC2)nc2ccccc2c1=O | inconclusive: 31.6 µM [inhibitor, single point] |
| Cc1c(N=C/C=C2/N(C)c3ccccc3C2(C)C)c(=O)n(-c2ccccc2)n1C | inconclusive: 20 µM [inhibitor, single point] |
| O=C(CNC(=O)c1ccccc1F)N/N=C/c1cn[nH]c1-c1ccccc1 | inactive |
| CCOC(=O)c1c(C)[nH]c(N=Nc2ccccc2)c1C | active: 7.94 µM |
| Cc1nn(Cc2ccccc2Cl)c(C)c1NC(=O)CCCn1nc(C)c([N+](=O)[O-])c1C | inactive |
| Cc1ccc(C)c(N2C(=O)c3cc(N4CCOCC4)c([N+](=O)[O-])cc3C2=O)c1 | inactive |
| COc1cc2c3c(c1)C1(C(=O)N3C(C)(C)C=C2C)C(C#N)=C(N)Oc2cc(C)oc(=O)c21 (stereo not given) | inactive |
| CCCN(C(=O)c1cc2c(s1)-c1ccccc1SC2)c1ccccc1F | inactive |
| Cc1nnc(N2C(=O)c3cccc4cccc(c34)C2=O)s1 | inactive |
| Cc1csc(SCC(=O)Nc2ncc(Cl)c(C)c2Cl)n1 | inactive |
| CNc1nc(N)c(C(=O)Nc2cc(C)on2)s1 | inactive |
| O=C(NNC(=S)NC(=O)c1cn(-c2ccccc2)nc1-c1ccccc1)c1ccncc1 | inconclusive: 39.8 µM [inhibitor, single point] |
| Cc1cc(C(=O)CSc2nc(N)cc(N)n2)c(C)n1CCc1ccc(F)cc1 | inconclusive: 35.5 µM [inhibitor, partial curve, poor fit] |
| CC(=O)Nc1ccc2c(c1)nc1n2CCSC1 | inconclusive: 3.98 µM [inhibitor, partial curve, poor fit] |
